Test results: article PMC4336329 (PLoS ONE, 2015)
Among all 310,000 compounds or so, about 14,000 (4.5%) showed an effect of 50% or more. The effect is printed as a negative number. This is one part of the list.

Biological target: human ether-à-go-go-related gene (hERG) potassium channel (human, UniProt Q12809)
Experiment: primary screen, population patch clamp on CHO cells stably expressing hERG
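Further: peak tail current of the secondary pulse compared with the same well before compound.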

Sequence of human ether-à-go-go-related gene (hERG) potassium channel (Q12809 whole entry, looked up): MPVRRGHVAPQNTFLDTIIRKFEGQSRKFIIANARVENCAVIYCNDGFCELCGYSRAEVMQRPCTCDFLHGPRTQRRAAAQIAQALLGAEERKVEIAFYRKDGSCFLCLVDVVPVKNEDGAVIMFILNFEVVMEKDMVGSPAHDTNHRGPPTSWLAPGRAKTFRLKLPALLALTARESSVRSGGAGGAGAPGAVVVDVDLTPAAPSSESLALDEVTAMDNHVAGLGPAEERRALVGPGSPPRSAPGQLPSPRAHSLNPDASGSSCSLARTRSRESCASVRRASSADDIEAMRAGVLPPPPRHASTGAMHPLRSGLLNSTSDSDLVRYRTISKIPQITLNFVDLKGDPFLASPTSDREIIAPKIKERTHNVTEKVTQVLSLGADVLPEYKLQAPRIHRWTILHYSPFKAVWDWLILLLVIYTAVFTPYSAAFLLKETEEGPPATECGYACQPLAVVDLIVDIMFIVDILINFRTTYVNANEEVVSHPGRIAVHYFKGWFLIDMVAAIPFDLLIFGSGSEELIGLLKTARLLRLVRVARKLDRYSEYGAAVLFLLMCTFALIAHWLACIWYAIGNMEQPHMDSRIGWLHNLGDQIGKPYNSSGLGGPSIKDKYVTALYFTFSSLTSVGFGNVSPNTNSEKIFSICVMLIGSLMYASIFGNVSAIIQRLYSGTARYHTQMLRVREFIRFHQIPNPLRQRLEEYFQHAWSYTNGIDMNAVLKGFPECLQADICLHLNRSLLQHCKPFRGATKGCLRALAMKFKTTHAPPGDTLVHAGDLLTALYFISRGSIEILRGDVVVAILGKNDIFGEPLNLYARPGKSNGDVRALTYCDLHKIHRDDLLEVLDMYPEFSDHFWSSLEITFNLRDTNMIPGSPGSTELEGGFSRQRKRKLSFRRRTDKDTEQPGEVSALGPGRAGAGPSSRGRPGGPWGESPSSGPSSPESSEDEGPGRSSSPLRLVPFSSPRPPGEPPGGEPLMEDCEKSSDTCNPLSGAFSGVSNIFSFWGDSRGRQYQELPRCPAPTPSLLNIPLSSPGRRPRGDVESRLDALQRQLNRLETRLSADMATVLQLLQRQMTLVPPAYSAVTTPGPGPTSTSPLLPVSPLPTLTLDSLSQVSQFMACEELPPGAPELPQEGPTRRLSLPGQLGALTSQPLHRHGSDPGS

Compound	hERG current change (%, negative = inhibition) at 10uM
CCCCOc1cccc(C(=O)NC(=S)Nc2cccc(NC(=O)c3ccccc3Cl)c2)c1	-8.49%
Clc1cccc(Cl)c1CSc1nnc(CN2CCOCC2)n1-c1ccccc1	-28.9%
Cc1cccc(Cl)c1NC(=O)N1CCCN(c2nc3ccc(Cl)cc3s2)CC1	-20.6%
CCOC(=O)c1c(S(=O)(=O)NCc2cccs2)c(C)n(C)c1C	-12.1%
C=CCc1ccc2oc(C(=O)OCC)cc(=O)c2c1O	7.27%
Cc1ccc2nc(NC(=O)CS(=O)(=O)Cc3ccccc3)sc2c1	19.3%
COc1ccc([C@@H]2[C@@H]3C(=O)N(C(C)(C)C)C(=O)[C@@H]3[C@]3(Cc4ccc(Cl)cc4)C(=O)N(c4cccc(C)c4)C(=O)N23)cc1	22.1%
COc1cccc(C2CC(c3ccc(NS(C)(=O)=O)cc3)=NN2C(=O)c2ccccc2)c1OC (centres unmarked)	-64.4%
CC(C)c1ccc(NC(=O)CSc2n[nH]c(=O)n2-c2ccc3c(c2)OCCO3)cc1	-2.99%
CCn1c2ccc(Cl)cc2c2nc3ccccc3nc21	11.9%
O=C1CC(c2ccccc2)CC(O)=C1C=NCCCN1CCOCC1 (centres unmarked)	-9.92%
CN1CCN(C(=O)c2ccc(N(Cc3ccc(Cl)cc3)S(C)(=O)=O)cc2)CC1	-12.4%
O=C1CCc2cc(S(=O)(=O)N3CCN(Cc4ccc5c(c4)OCO5)CC3)ccc2N1	-70.1%
COc1ccc(C/C(N)=N/OC(=O)Cc2ccc(OC)c(OC)c2)cc1	-23.8%
Cc1ccc(NC(=S)N(CCN(C)C)Cc2cccs2)c(C)c1	-15.6%
COc1ccc(C(O)CNc2ccc(C)cc2)cc1 (centres unmarked)	-2.69%
Cc1cc2occ(CC(=O)N(C)CC(=O)Nc3ccccc3C(F)(F)F)c2cc1C	-18%
CC(C)Cc1nnc(NC(=O)CSc2nc(O)c(-c3ccccc3)c(=O)[nH]2)s1	60.8%
O=C(OCC(=O)N1CCN(C(=O)c2ccco2)CC1)c1ccc(Cl)cc1	-38.7%
CCOC(=O)c1[nH]cnc1C(=O)NCc1ccccc1	-16.2%
C=CCC(Nc1ccccc1)c1cccc(OC)c1OC (centres unmarked)	-1.92%
CSc1nnc(SCC(=O)NC(=O)c2ccccc2)s1	15.9%
O=C(COC(=O)CNC(=O)c1ccco1)Nc1ccccc1OC(F)F	11.6%
